Data published in PubChem BioAssay AID463173 (ICCB-Longwood Screening Facility, Harvard Medical School, 2010).
The whole screen tested about 52,000 compounds, of which about 1,700 (3.3%) were called active. Rule as the data show it: active = survival mostly below about 52% (no sharp cut-off); inactive = mostly above about 56%. This is one part of the list.

System: Wild type
Experiment: growth inhibition of S. aureus wild type versus tarO mutant, primary screen, teichoic acid synthesis inhibitors, RN4220, OD600 (AID 463173)
Conditions: S. aureus RN4220 wild type/DeltatarO growth, OD600, 18 h, active compounds read low, screened at 18.75 µg/mL (by protocol)

| SMILES | survival |
| --- | --- |
| Cc1ccc(-c2ccc(CCC(=O)O)n2-c2ccc(C(C)C)cc2)cc1 | inactive: 61% |
| Nc1c(-c2nc(-c3ccccc3)no2)nnn1CC(=O)Nc1ccccc1 | inactive: 75% |
| COc1ccccc1CNC(=O)Cn1ncc2c(C)n(Cc3ccccc3Cl)c(C)c2c1=O | inactive: 79% |
| CCOc1ccccc1NC(=O)N1CCN(S(=O)(=O)c2ccc3c(ccn3C)c2)CC1 | inactive: 86% |
| CC(C)c1ccccc1NC(=O)CSc1nnc(COc2ccccc2Cl)o1 | inactive: 118% |
| CCN(c1ccc(C)cc1)S(=O)(=O)c1nnc(NC(=O)c2cccs2)s1 | inactive: 22% |
| O=C(O)CCCN1C(=O)C(=O)/C(=C(/O)c2ccccc2)C1/C=C/c1ccccc1 (configuration not stated) | inactive: 104% |
| CCN(CC)CCNC(=O)c1cc2c(=O)[nH]c3ccc(C)cc3c2s1 | inactive: 125% |
| Cc1nnc(SCc2ccccc2)n1N | inactive: 106% |
| CCN(CC)C(=O)C1=C(C)Nc2nc3ccccc3n2C1c1ccc(Cl)cc1 (configuration not stated) | inactive: 75% |
| CSc1ncc(C(=O)Nc2cccc(Cl)c2C)c(-c2ccccc2)n1 | inactive: 129% |
| Cc1cc(NC(=O)CSc2ncc(C(=O)Nc3ccccc3)c(=O)n2C)no1 | inactive: 93% |
| O=C(NCc1ccccn1)c1nn(-c2ccccc2Cl)nc1CO | inactive: 93% |
| COc1ccccc1CNC(=O)C(Cc1ccccc1)NS(=O)(=O)c1ccc2c(c1)CCN2C(C)=O (configuration not stated) | inactive: 68% |
| Cc1ccccc1NC(=O)c1ccc(CNS(=O)(=O)c2ccc3c(c2)C(C)(C)C(=O)N3C)cc1 | inactive: 93% |
| CCCCOc1ccc(C(=O)NCCc2csc3nc(-c4ccccc4F)nn23)cc1 | inactive: 82% |
| Cc1ccc(Cl)cc1N(C)C(=O)c1cc2ccc3cccnc3c2[nH]1 | inactive: 82% |
| CCNC(=O)CC1C(=O)N(c2ccc(F)cc2)C(=O)N1Cc1ccc(C)cc1 (configuration not stated) | inactive: 77% |
| O=C(Nc1nnc(C2CCCC2)s1)C1CC1 | inactive: 105% |
| CC1(C)CC(C(CC(=O)O)Cc2ccccc2)CCO1 (configuration not stated) | inactive: 132% |
| CCOc1ccccc1C(=O)NCC(c1ccc(N(C)C)cc1)N1CCCC1 (configuration not stated) | inactive: 80% |
| CS(=O)(=O)N1CCC(N2CCN(Cc3ccc(F)cc3)C(=O)C2=O)CC1 | inactive: 81% |
| CNC(=S)N(Cc1ccco1)Cc1cc2ccc(C)cc2[nH]c1=O | inactive: 116% |

| SMILES | survival |
| --- | --- |
| CCn1c(CN2CCN(C)CC2)nc2cc(NC(=O)c3cc(OC)c(OC)c(OC)c3)ccc21 | inactive: 98% |
| CSc1ccc(CCNC(=O)c2ccc3c(c2)c(C)c(C)n3Cc2ccc(F)cc2)cc1 | inactive: 70% |
| COCCn1c(CNC(=O)c2cc(OC)c(OC)c(OC)c2)nc2cccnc21 | inactive: 83% |
| CCOC(=O)CNC(=O)Cn1nc(N2CCN(c3ccccc3)CC2)ccc1=O | inactive: 82% |
| N#Cc1c(N)nc(SCC(=O)c2ccc(Cl)cc2)c(C#N)c1-c1ccco1 | inactive: 110% |
| Cc1cc2ncn(C(=O)N3CCCCC3)c2cc1C | inactive: 104% |
| CC(=O)c1cccc(NC(=O)c2cc(-c3ccc4c(c3)OCCO4)on2)c1 | inactive: 77% |
| CCN(CC)C(=O)C1CCCN(c2ncnc3c2nc2n3CCCCC2)C1 (configuration not stated) | inactive: 70% |
| COc1ccc(CCNC(=O)c2cc3c(=O)[nH]c4ccc(C)cc4c3s2)cc1OC | inactive: 64% |
| CCOc1ccccc1CNC(=O)CN1C(=O)C2CCCCN2c2ccc(C(=O)N(C)C)cc21 (configuration not stated) | inactive: 128% |
| COC(=O)c1ccccc1NC(=O)CCCS(=O)(=O)c1nc(-c2ccccc2OC)cc(C(F)(F)F)n1 | inactive: 86% |
| O=C(Nc1ccc2nsnc2c1)C1CC1 | inactive: 89% |
| COC(=O)c1ccc(NC(=O)c2c(NCc3ccc(OC)c(OC)c3)sc3c2CCCC3)cc1 | inactive: 76% |
| Cc1nn(C)c2c1c(C(F)(F)F)cc(=O)n2CC(=O)NC(C)(C)C | inactive: 64% |
| CCOc1ccc(OCC)c(NC(=O)c2c(C)nn(-c3ccccc3)c2-n2cccc2)c1 | inactive: 32% |
| COc1ccc(CCCc2nnc(SCC(=O)Nc3ccc(Cl)cc3)o2)cc1 | inactive: 89% |
| CCc1ccc(CNC(=O)c2sc3ncnc(N(C)C4CCCCC4)c3c2C)cc1 | inactive: 94% |
| COc1ccc(-c2cc(-c3ccc(F)cc3)nc3c2COc2ccccc2-3)cc1 | inactive: 60% |
| Cc1oc2ncnc(N3CCCCC3)c2c1C(=O)Nc1cccc(F)c1 | inactive: 134% |
| CCc1ccccc1NC(=O)c1ccc2[nH]c(C)c(C)c2c1 | inactive: 136% |
| Cc1ccccc1CN1C(=O)C(O)(CC(=O)c2cccc(Br)c2)c2ccccc21 (configuration not stated) | active: 10% |
| CCOc1ccccc1C1Nc2ccccc2-c2nnc(SCc3ccccc3)nc2O1 (configuration not stated) | inactive: 75% |
| Cc1c(C(=O)NCc2ccccc2)oc2c1-c1[nH]ncc1CC2 | inactive: 83% |

| SMILES | survival |
| --- | --- |
| COc1ccc(Nc2cc(C(=O)NCCCN(C)C3CCCCC3)c3ccccc3n2)cc1 | inactive: 99% |
| CCCN(C(=O)Cn1nc(Cc2ccncc2)c2ccccc2c1=O)c1ccccc1C | inactive: 94% |
| CCOc1ccc(-c2nnc(SCC(=O)NCCc3ccccc3)nc2-c2ccc(OCC)c(OC)c2)cc1OC | inactive: 121% |
| Cc1ccc(C)c2[nH]c(=O)c(CN(CCCN3CCCC3=O)S(=O)(=O)c3ccc(F)cc3)cc12 | inactive: 111% |
| COCCCn1c(=N)c(C(=O)NC2CCCC2)cc2c(=O)n3cc(C)ccc3nc21 | inactive: 71% |
| Cc1cc(O)c(CN2CCN(c3ccc(F)cc3)CC2)c2oc(=O)cc(C)c12 | inactive: 79% |
| Cc1cccc(C(=O)Nc2nnc(S(=O)(=O)N3c4ccccc4CC3C)s2)c1 (configuration not stated) | inactive: 21% |
| COc1ccc(Br)cc1CNC(=O)c1ccc(-n2c(C)cc3c2CCC(C)C3)cc1 (configuration not stated) | inactive: 136% |
| O=C(O)CCc1ccc(-c2ccc(Cl)cc2)n1-c1cccc(C(F)(F)F)c1 | inactive: 78% |
| CCOc1ccc(CCNC(=O)c2nn(-c3ccc(OC)cc3)c(=O)c3c2c2ccccc2n3C)cc1OCC | inactive: 83% |
| Cn1c(CN2CCCCC2)nc2cc(NC(=O)c3ccc(Cl)cc3)ccc21 | inactive: 139% |
| Cc1ccc2[nH]c3c(=O)n(CC(=O)N(C)Cc4ccccc4)ncc3c2c1 | active: -3% |
| O=C(Cc1ccc(F)cc1)NCCc1csc(-c2ccc(C(F)(F)F)cc2)n1 | inactive: 76% |
| CCOC(=O)c1cnc(NCc2ccc(Cl)cc2)c2ccccc12 | inactive: 81% |
| CCN(CC)C(=O)c1ccccc1NC(=O)c1cccc(S(=O)(=O)N2CCC(C)CC2)c1 | inactive: 63% |
| O=C(CSc1nc2ccccc2s1)N=Nc1c(O)n(CN2CCCC2)c2ccccc12 | inactive: 117% |
| O=C(NC1CCCCC1)/C(=C/c1ccc(Cl)cc1)NC(=O)c1ccccc1 | inactive: 76% |
| Cc1ccc(C(=O)CSc2nnc3ccc4ccccc4n23)cc1 | inactive: 46% |
| N#Cc1cc2c(=O)n3ccccc3nc2n(-c2nnc(SCc3ccccc3)s2)c1=O | inactive: 91% |
| COc1cccc(CNC(=O)c2ccc(CS(=O)Cc3ccc(Cl)cc3)o2)c1 (configuration not stated) | inactive: 94% |
| Cc1cccc(N(C)c2nc3ccc(C)cc3n3nnnc23)c1 | inactive: 74% |
| Cc1nn(C)c(C)c1NC(=O)CSc1nccc(-c2ccc(Cl)cc2)n1 | inactive: 100% |
| CCOC(=O)C1CCCN(S(=O)(=O)c2cc(-c3cc(C)no3)ccc2C)C1 (configuration not stated) | inactive: 71% |

| SMILES | survival |
| --- | --- |
| S=c1nc(C2CC2)[nH]c2ccccc12 | inactive: 94% |
| CCC(=O)N1c2ccc(S(=O)(=O)N3CCN(c4ccccc4Cl)CC3)cc2CC1C (configuration not stated) | inactive: 81% |
| Cc1ccc(NC(CNS(=O)(=O)c2ccc(Cl)cc2)c2ccccc2)cc1 (configuration not stated) | inactive: 86% |
| Cc1ccc(CNC(=O)C2CCN(c3ncnc4c3nc3n4CCCCC3)CC2)cc1 | inactive: 85% |
| CCC(C)(C)NC(=O)c1ccc2c(c1)N(CC#N)C(=O)C(C)(C)O2 | inactive: 116% |
| Cn1nnc2cc(C(=O)N3CCSCC3)ccc21 | inactive: 106% |
| CC(=O)N(Cc1cc2cc(C)ccc2nc1Cl)C1CCCC1 | inactive: 108% |
| Cc1cccc(C)c1Nc1c(-c2ccccc2O)nc2ncccn12 | inactive: 74% |
| Cc1ccccc1CNC(=O)c1ccc2c(c1)N(Cc1ccccc1)CCS2 | inactive: 88% |
| Cc1cnc(C(=O)Nc2ccc(C(=O)N(C)C3CCCCC3)cc2)cn1 | inactive: 106% |
| O=c1oc2ccc3ccccc3c2cc1-c1nnc(Nc2cccc(F)c2)s1 | inactive: 78% |
| O=C(CCCn1c(=O)c2cccn2c2cccnc21)Nc1ccccc1Br | inactive: 88% |
| CCN1CCOC(=O)C1CC(=O)Nc1cc(Cl)ccc1OC (configuration not stated) | inactive: 55% |
| Cc1ccc(CNC(=O)Cn2cc(C(=O)c3ccc(Cl)cc3)c(=O)c3ccc(C)nc32)cc1 | inactive: 77% |
| CCCCn1c(=O)c2oc3ccccc3c2n(CC(=O)Nc2ccccc2OC)c1=O | inactive: 113% |
| CCOC(=O)c1c(NC(=O)/C=C/c2ccc(OCC)cc2)sc2c1CCC2 | inactive: 139% |
| Cc1nn(CC(=O)NCc2ccccc2Br)c(=O)c2cc3occc3n12 | inactive: 123% |
| Cc1ccc(S(=O)(=O)N2CCCc3cc(NC(=O)c4c(F)cccc4F)ccc32)cc1 | inactive: 75% |
| CCCCNC(=O)[C@@H](c1ccccc1)N1Cc2ccccc2C1=O | inactive: 90% |
| CCc1ccc(C2=C(C)C(N3CCC(C(=O)NCc4ccc(C)o4)CC3)=NS2(=O)=O)cc1 | inactive: 63% |
| O=C1/C(=C/c2ccccc2O)CC/C1=C\c1ccccc1O | inactive: 71% |
| CNc1oc(/C=C/c2cc(OC)c(OC)c(OC)c2)nc1C#N | inactive: 92% |
| Cc1cccc(OCCCCn2c(C3CC(=O)N(c4ccc(C)cc4C)C3)nc3ccccc32)c1 (configuration not stated) | inactive: 18% |
